Consider one molecule from US20230348881A1 (ONCHILLES PHARMA, published 2023).

In this experiment the target is T1, alpha-1 antitrypsin (A1AT) (human, UniProt P01009).
T1 construct: also called Serpin A1AT
As to the kind of experiment: incubation with A1AT for 30 min at room temperature, Ni-Sepharose purification of his-tagged pro-rPPE, trypsin activation, colorimetric activity assay; inset immunoblot for A1AT. The method, then:
To test binding to the Serpin A1AT, the wild-type PPE proprotein (pro-rPPE) with a C-terminal his-tag was incubated in the presence/absence of a 20-fold excess of A1AT for 30 minutes at room temperature. After incubation, pro-rPPE was purified by Ni-Sepharose beads. Purified pro-rPPE was then treated with trypsin for 2 hours at 37° C. to activate the enzyme, and catalytic activity was assessed using a colorimetric activity assay. As a control, pro-rPPE was first activated with trypsin to generate active rPPE and then taken through an identical A1AT-binding/purification procedure. […] In contrast, the protease activity of activated rPPE was attenuated by A1AT when subjected to an identical procedure.
For orientation: In western blotting, separated proteins are transferred to a membrane and probed.

T1 sequence (P01009 25-418 limits assumed): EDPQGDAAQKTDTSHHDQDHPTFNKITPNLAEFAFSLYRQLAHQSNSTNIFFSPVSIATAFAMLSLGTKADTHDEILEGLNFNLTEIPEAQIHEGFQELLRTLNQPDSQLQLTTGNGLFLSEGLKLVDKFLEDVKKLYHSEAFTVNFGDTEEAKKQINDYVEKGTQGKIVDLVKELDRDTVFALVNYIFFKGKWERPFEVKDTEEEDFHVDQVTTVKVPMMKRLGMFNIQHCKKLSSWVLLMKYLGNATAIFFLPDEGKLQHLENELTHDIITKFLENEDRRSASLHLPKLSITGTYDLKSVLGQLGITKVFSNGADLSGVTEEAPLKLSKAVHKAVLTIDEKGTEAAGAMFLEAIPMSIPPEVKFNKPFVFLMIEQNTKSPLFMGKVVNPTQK

B1: wild-type recombinant PPE proprotein (pro-rPPE) with a C-terminal his-tag (enzyme)
chain: TQDFPETNARVVGGTEAQRNSWPSQISLQYRSGSSWAHTCGGTLIRQNWVMTAAHCVDRELTFRVVVGEHNLNQNDGTEQYVGVQKIVVHPYWNTDDVAAGYDIALLRLAQSVTLNSYVQLGVLPRAGTILANNSPCYITGWGLTRTNGQLAQTLQQAYLPTVDYAICSSSSYWGSTVKNSMVCAGGDGVRSGCQGDSGGPLHCLVNGQYAVHGVTSFVSRLGCNVTRKPTVFTRVSAYISWINNVIASN
notes: also called wild-type PPE proprotein; WT PPE proprotein; not shown: C-terminal his-tag
For the molecule B1, the binding result is listed as “no binding (tested: 20-fold excess of A1AT)”.
